Results reported in the supplement of paper PMC4967469.
By IC50 is meant the dose at which the fit gives 50% viability; fits outside the tested doses are given as limits. AUC is the area under the same curve over the 256-fold range up to the top dose, as a fraction; the more sensitive the line, the further below 1. An inferred top dose is not printed in the source and was worked back from the curve model. For part of these data: Where an entry number is given, a second screen of the drug exists; the two often differ.

Experiments:
GSK429286A = compound: CC1=C(C(=O)Nc2cc3cn[nH]c3cc2F)C(c2ccc(C(F)(F)F)cc2)CC(=O)N1 [GSK429286A]; assay: Viability of human cancer cell lines after 72 h of drug (GDSC screen); details: top dose inferred
Experimental: (§1)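 Human cancer cell lines in 384-well plates, medium with 10% serum, drug for 72 h over a 256-fold dose range (nine 2-fold or five 4-fold steps up to the top dose). Adherent lines were fixed and stained with the nucleic acid dye Syto60, suspension lines read with resazurin; signal relative to control wells, capped at 0 and 100%. One two-parameter sigmoid per drug and line, fitted in a mixed model over all curves with the slope shared within a line.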

AKT inhibitor VIII = compound: O=c1[nH]c2ccccc2n1C1CCN(Cc2ccc(-c3[nH]c4cc5ncnc5cc4nc3-c3ccccc3)cc2)CC1 [AKT inhibitor VIII]; assay: as above; details: top dose inferred
Experimental: as §1

[1] = top dose 2.56 µM, screen: GDSC drug entry 171
[2] = top dose 10.24 µM, screen: GDSC drug entry 228

Row | Cell Line | AUC (GSK429286A) | IC50 (GSK429286A) [µM] | AUC (AKT inhibitor VIII; [1]) | IC50 (AKT inhibitor VIII; [1]) [µM] | AUC (AKT inhibitor VIII; [2]) | IC50 (AKT inhibitor VIII; [2]) [µM]
1 | NCI-H1299 (large cell lung carcinoma, adherent, top dose 20 µM) | 0.977 | > 20 |  |  |  | 
2 | RPMI-8226 (myeloma, suspension, top dose 20 µM) | 0.979 | > 20 |  |  |  | 
3 | NCI-H358 (lung adenocarcinoma, adherent, top dose 20 µM) | 0.971 | > 20 |  |  |  | 
4 | H290 (mesothelioma, adherent, top dose 20 µM) | 0.989 | > 20 |  |  |  | 
5 | KE-37 (lymphoblastic leukaemia, suspension, top dose 20 µM) | 0.691 | 3.69 |  |  |  | 
6 | HT-1197 (bladder, adherent, top dose 20 µM) | 0.985 | > 20 |  |  |  | 
7 | NCI-H441 (lung adenocarcinoma, adherent, top dose 20 µM) | 0.976 | > 20 |  |  |  | 
8 | NEC8 (testis, adherent, top dose 20 µM) | 0.988 | > 20 |  |  |  | 
9 | CAL-12T (non-small cell lung carcinoma, adherent, top dose 20 µM) | 0.929 | > 20 |  |  |  | 
10 | CCF-STTG1 (glioma, adherent, top dose 20 µM) | 0.985 | > 20 |  |  |  | 
11 | TGBC11TKB (stomach, adherent, top dose 20 µM) | 0.986 | > 20 |  |  |  | 
12 | EKVX (lung adenocarcinoma, adherent, top dose 20 µM) | 0.965 | > 20 |  |  |  | 
13 | TE-9 (oesophagus, adherent, top dose 20 µM) | 0.986 | > 20 |  |  |  | 
14 | H2869 (mesothelioma, adherent, top dose 20 µM) | 0.818 | 14.8 |  |  |  | 
15 | A673 (rhabdomyosarcoma, adherent, top dose 20 µM) | 0.98 | > 20 |  |  |  | 
16 | HT-3 (cervix, adherent, top dose 20 µM) | 0.983 | > 20 |  |  |  | 
17 | PCI-38 (head and neck, adherent, top dose 20 µM) | 0.977 | > 20 |  |  |  | 
18 | H2461 (mesothelioma, adherent, top dose 20 µM) | 0.965 | > 20 |  |  |  | 
19 | EC-GI-10 (oesophagus, adherent, top dose 20 µM) | 0.989 | > 20 |  |  |  | 
20 | UACC-62 (melanoma, adherent, top dose 20 µM) | 0.986 | > 20 |  |  |  | 
21 | NCI-H2085 (lung adenocarcinoma, adherent, top dose 20 µM) | 0.974 | > 20 |  |  |  | 
22 | NCI-H1092 (small cell lung carcinoma, suspension, top dose 20 µM) | 0.973 | > 20 |  |  |  | 

Row | Cell Line | AUC (GSK429286A) | IC50 (GSK429286A) [µM] | AUC (AKT inhibitor VIII; [1]) | IC50 (AKT inhibitor VIII; [1]) [µM] | AUC (AKT inhibitor VIII; [2]) | IC50 (AKT inhibitor VIII; [2]) [µM]
23 | C-4-I (cervix, adherent, top dose 20 µM) | 0.982 | > 20 |  |  |  | 
24 | MDST8 (large intestine, adherent, top dose 20 µM) | 0.979 | > 20 |  |  |  | 
25 | OVCAR-4 (ovary, adherent, top dose 20 µM) | 0.969 | > 20 |  |  |  | 
26 | ES8 (Ewing sarcoma, adherent, top dose 20 µM) | 0.9 | > 20 |  |  |  | 
27 | OV-7 (ovary, adherent, top dose 20 µM) | 0.732 | 8.25 |  |  |  | 
28 | SK-GT-4 (oesophagus, adherent, top dose 20 µM) | 0.98 | > 20 |  |  |  | 
29 | KARPAS-45 (lymphoblastic leukaemia, suspension, top dose 20 µM) | 0.779 | 6.79 |  |  |  | 
30 | TGBC1TKB (biliary tract, adherent, top dose 20 µM) | 0.986 | > 20 |  |  |  | 
31 | LN-405 (glioma, adherent, top dose 20 µM) | 0.969 | > 20 |  |  |  | 
32 | JHOS-2 (ovary, adherent, top dose 20 µM) | 0.976 | > 20 |  |  |  | 
33 | HuP-T4 (pancreas, adherent, top dose 20 µM) | 0.938 | > 20 |  |  |  | 
34 | NCI-H1876 (small cell lung carcinoma, adherent, top dose 20 µM) | 0.975 | > 20 |  |  |  | 
35 | CAL-72 (osteosarcoma, adherent, top dose 20 µM) | 0.983 | > 20 |  |  |  | 
36 | OCI-AML3 (acute myeloid leukaemia, suspension, top dose 20 µM) | 0.915 | > 20 |  |  |  | 
37 | RT-112 (bladder, adherent, top dose 20 µM) | 0.982 | > 20 |  |  |  | 
38 | EFO-21 (ovary, adherent, top dose 20 µM) | 0.98 | > 20 |  |  |  | 
39 | KMOE-2 (acute myeloid leukaemia, suspension, top dose 20 µM) | 0.968 | > 20 |  |  |  | 
40 | ATN-1 (T-cell lymphoblastic leukaemia, suspension, top dose 20 µM) | 0.844 | 12.9 |  |  |  | 
41 | KYSE-270 (oesophagus, adherent, top dose 20 µM) | 0.971 | > 20 |  |  |  | 
42 | EJM (lymphoid neoplasm, semi-adherent, top dose 20 µM) | 0.966 | > 20 |  |  |  | 
43 | EW-24 (Ewing sarcoma, semi-adherent, top dose 20 µM) | 0.993 | > 20 |  |  |  | 
44 | SW1783 (glioma, adherent, top dose 20 µM) | 0.979 | > 20 |  |  |  | 

Row | Cell Line | AUC (GSK429286A) | IC50 (GSK429286A) [µM] | AUC (AKT inhibitor VIII; [1]) | IC50 (AKT inhibitor VIII; [1]) [µM] | AUC (AKT inhibitor VIII; [2]) | IC50 (AKT inhibitor VIII; [2]) [µM]
45 | RERF-LC-MS (lung adenocarcinoma, adherent, top dose 20 µM) | 0.98 | > 20 |  |  |  | 
46 | NCI-H1623 (lung adenocarcinoma, adherent, top dose 20 µM) | 0.984 | > 20 |  |  |  | 
47 | HuO-3N1 (osteosarcoma, adherent, top dose 20 µM) | 0.928 | > 20 |  |  |  | 
48 | J82 (bladder, adherent) |  |  | 0.919 | > 2.56 | 0.919 | > 10.2
49 | LU-99A (large cell lung carcinoma, adherent) |  |  | 0.985 | > 2.56 | 0.908 | > 10.2
50 | COLO-829 (melanoma, adherent) |  |  | 0.93 | > 2.56 | 0.881 | > 10.2
51 | HeLa (cervix, adherent) |  |  | 0.982 | > 2.56 | 0.965 | > 10.2
52 | RS4-11 (leukaemia, suspension) |  |  | 0.896 | > 2.56 | 0.575 | 1
53 | H2591 (mesothelioma, adherent) |  |  | 0.942 | > 2.56 | 0.939 | > 10.2
54 | HCC1599 (breast, suspension) |  |  | 0.955 | > 2.56 | 0.633 | 1.58
55 | YMB-1-E (breast, adherent) |  |  |  |  | 0.634 | 1.72
56 | KP-N-YS (neuroblastoma, adherent) |  |  | 0.975 | > 2.56 | 0.835 | 8.14
57 | GCT (soft tissue, adherent) |  |  | 0.98 | > 2.56 | 0.983 | > 10.2
58 | H2804 (mesothelioma, adherent) |  |  | 0.958 | > 2.56 | 0.867 | > 10.2
59 | Hs-445 (Hodgkin lymphoma, suspension) |  |  | 0.942 | > 2.56 | 0.757 | 3.3
60 | NCI-H1793 (lung adenocarcinoma, adherent) |  |  | 0.97 | > 2.56 | 0.971 | > 10.2
61 | NUGC-3 (stomach, adherent) |  |  | 0.855 | 2.46 | 0.972 | > 10.2
62 | HPAC (pancreas, adherent) |  |  | 0.893 | > 2.56 | 0.848 | > 10.2
63 | COLO-792 (melanoma, adherent) |  |  | 0.984 | > 2.56 | 0.933 | > 10.2
64 | KG-1 (acute myeloid leukaemia, suspension) |  |  | 0.974 | > 2.56 | 0.824 | 5.23
65 | NCI-H1299 (large cell lung carcinoma, adherent) |  |  | 0.918 | > 2.56 | 0.94 | > 10.2
66 | H2818 (mesothelioma, adherent) |  |  | 0.98 | > 2.56 | 0.979 | > 10.2

Row | Cell Line | AUC (GSK429286A) | IC50 (GSK429286A) [µM] | AUC (AKT inhibitor VIII; [1]) | IC50 (AKT inhibitor VIII; [1]) [µM] | AUC (AKT inhibitor VIII; [2]) | IC50 (AKT inhibitor VIII; [2]) [µM]
67 | ChaGo-K-1 (non-small cell lung carcinoma, adherent) |  |  | 0.93 | > 2.56 | 0.794 | 5.57
68 | VCaP (prostate, adherent) |  |  | 0.942 | > 2.56 | 0.731 | 2.99
69 | COR-L105 (lung adenocarcinoma, adherent) |  |  | 0.92 | > 2.56 | 0.786 | 5.48
70 | NCI-H2030 (lung adenocarcinoma, adherent) |  |  | 0.84 | 2.12 | 0.761 | 4.12
71 | OSC-19 (head and neck, adherent) |  |  | 0.983 | > 2.56 | 0.942 | > 10.2
72 | SNU-1040 (large intestine, adherent) |  |  |  |  | 0.743 | 4.12
73 | NCI-H2170 (lung squamous cell carcinoma, adherent) |  |  | 0.9 | > 2.56 | 0.95 | > 10.2
74 | COR-L303 (small cell lung carcinoma, suspension) |  |  |  |  | 0.781 | 4.08
75 | RT-112 (bladder, adherent) |  |  | 0.91 | > 2.56 | 0.839 | 7.78
76 | IM-95 (stomach, adherent) |  |  | 0.77 | 1.04 | 0.636 | 1.57
77 | KNS-81-FD (glioma, adherent) |  |  | 0.97 | > 2.56 | 0.967 | > 10.2
78 | HSC-3 (head and neck, adherent) |  |  | 0.978 | > 2.56 | 0.972 | > 10.2
79 | SNU-398 (liver, adherent) |  |  | 0.908 | > 2.56 | 0.865 | 9.66
80 | VM-CUB-1 (bladder, adherent) |  |  | 0.966 | > 2.56 | 0.989 | > 10.2
81 | KP-4 (pancreas, adherent) |  |  | 0.98 | > 2.56 | 0.974 | > 10.2
82 | SW1463 (large intestine, adherent) |  |  | 0.959 | > 2.56 | 0.978 | > 10.2
83 | Caov-3 (ovary, adherent) |  |  | 0.988 | > 2.56 | 0.932 | > 10.2
84 | MZ7-mel (melanoma, adherent) |  |  | 0.969 | > 2.56 | 0.884 | > 10.2
85 | HO-1-N-1 (head and neck, adherent) |  |  | 0.978 | > 2.56 | 0.973 | > 10.2
